# Values joined by “and” are separate entries in the source; they are usually repeats but may differ in a detail not shown here. Equal entries are not always repeated. About 5,800 (2.1%) of roughly 270,000 compounds were called active. Inconclusive means that the source gave no clear call. Such entries were picked first, then a sample of the others. Calls follow the shape of the dose curve; as a rule, active = well fitted inhibition curve with a large enough effect; inconclusive = small, poorly fitted or top-dose-only effect; inactive = flat fitted curve, though single readings scatter. A potency beside an inconclusive call is a rough fit, not a confirmed value.
# Target: Microtubule-associated protein tau (Homo sapiens) (UniProt P10636)
# Assay: qHTS for Inhibitors of Tau Fibril Formation, Thioflavin T Binding; also: nearly all actives have a fitted effect of over 55% in size
# Conditions: recombinant tau K18 P301L (four-repeat tau fragment), heparin-induced fibrillization, ThT fluorescence; series mostly up to 57.4 µM; activity, negative = inhibition: at the top concentration
# Summary of the method: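 Recombinant human tau K18 fragment […] carrying P301L, 15 uM unlabeled plus 0.24 uM Alexa 594-labeled, was fibrillized with 20 uM heparin in 100 mM sodium acetate pH 7 for 6 hr at 37 C; 30 uM ThT fluorescence read after 1 hr.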
# % is scaled to controls: 0 for no effect and ±100 for the full control effect; potency is read from the fitted curve at half-maximal effect; tags tell the direction and shape of the fitted curve.
# UniProt P10636, sequence (P10636 whole entry, looked up): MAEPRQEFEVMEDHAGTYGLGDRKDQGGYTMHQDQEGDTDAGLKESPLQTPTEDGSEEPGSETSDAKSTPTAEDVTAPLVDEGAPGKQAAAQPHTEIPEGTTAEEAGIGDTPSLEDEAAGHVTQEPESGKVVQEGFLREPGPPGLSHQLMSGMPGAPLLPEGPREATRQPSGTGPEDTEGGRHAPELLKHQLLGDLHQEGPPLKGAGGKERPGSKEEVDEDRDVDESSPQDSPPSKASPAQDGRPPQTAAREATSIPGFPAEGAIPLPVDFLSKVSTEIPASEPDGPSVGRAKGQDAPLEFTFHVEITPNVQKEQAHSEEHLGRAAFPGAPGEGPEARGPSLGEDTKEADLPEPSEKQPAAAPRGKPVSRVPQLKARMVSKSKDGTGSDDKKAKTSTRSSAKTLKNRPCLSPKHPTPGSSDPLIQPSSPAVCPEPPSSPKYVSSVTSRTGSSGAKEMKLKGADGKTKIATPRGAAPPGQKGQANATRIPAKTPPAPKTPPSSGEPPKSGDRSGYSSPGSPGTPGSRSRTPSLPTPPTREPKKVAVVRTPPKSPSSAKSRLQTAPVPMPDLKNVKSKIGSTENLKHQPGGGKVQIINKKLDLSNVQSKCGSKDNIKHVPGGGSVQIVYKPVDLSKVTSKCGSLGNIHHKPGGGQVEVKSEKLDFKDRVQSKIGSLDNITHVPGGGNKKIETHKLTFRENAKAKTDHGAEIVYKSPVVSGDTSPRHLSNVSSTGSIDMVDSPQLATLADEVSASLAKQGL
Structure (SMILES),Potency,"activity, negative = inhibition"
Cc1ccc(-c2cnc(SCC(=O)N3CCCc4ccccc43)n2C)cc1,"inconclusive: 7.08 µM [inhibitor, partial curve]",
CCC(=S)/C=C1\Sc2ccc3ccccc3c2N1CCCS(=O)(=O)O,"inconclusive: 25.1 µM [inhibitor, single point]",
CCC12CCCN3CCc4c(n(c5ccccc45)C(O)(C(=O)OC)C1)C32 (centres undefined),active: 17.8 µM,
Cc1ccc(/C=C/C(=O)N2CC(C)CC(C)C2)o1 (centres undefined),"inconclusive: 35.5 µM [inhibitor, single point]",
Cc1nn(-c2ccc(Cl)nn2)c(=O)c2ccccc12,,inactive: 2.72%
O=C(NCCNc1ccc2ccccc2c1)c1cccn2c(=O)c3sccc3nc12,"inconclusive: 3.55 µM [inhibitor, partial curve, poor fit]",
COc1cc(/C=N/n2cnnc2-n2nc(C)cc2C)cc([N+](=O)[O-])c1O,"inconclusive: 25.1 µM [inhibitor, partial curve]",
Cc1ccc(C(=O)c2cn(Cc3ccccc3)c3cc4c(cc3c2=O)OCCO4)cc1,"inconclusive: 0.0708 µM [inhibitor, full curve]",
COc1cc(NC(=S)N2CCN(Cc3ccccc3)CC2)cc(OC)c1,,inactive: 0.748%
COc1cc([N+](=O)[O-])ccc1-c1ccc(C(=O)Nc2ccc(NC(C)=O)cc2)o1,active: 5.01 µM,
Cn1ccc2c(OCC(=O)NCc3ccc(F)cc3)cccc2c1=O,,inactive: -0.295%
COc1ccc2[nH]c(N=Nc3ccccc3C)c(O)c2c1,"inconclusive: 2.51 µM [inhibitor, full curve]",
c1ccc2c(-c3csc(-c4ccncc4)n3)c[nH]c2c1,active: 3.16 µM,
Cc1ccc(N(CC(=O)N/N=C/c2cc(C)n(-c3ccccc3C)c2C)S(C)(=O)=O)cc1,,inactive: -17.8%
CCc1ccc(NC(=O)C(=O)NCCc2sc(-c3ccc(C)cc3)nc2C)cc1,"inconclusive: 0.708 µM [inhibitor, full curve]",
O=C(CSc1nc2c(c(=O)[nH]1)CCC2)Nc1cc(C(F)(F)F)ccc1Cl,,inactive: -12.5%
Cc1cccc(-c2nc(S(=O)(=O)c3ccccc3)c(N3CCN(c4ccccc4)CC3)o2)c1,,inactive: 4.56%
COc1ccc(NCc2cccn2-c2nnc(N3CCC(C)CC3)s2)c(OC)c1,"inconclusive: 25.1 µM [inhibitor, partial curve]",
CCCC(=O)N1CCN(c2ccc(NC(=O)c3sc4ccccc4c3Cl)cc2)CC1,active: 2.24 µM,
COc1ccc(C(=O)N/C(=C\c2ccc3c(c2)OCO3)C(=O)Nc2cccc(C(=O)O)c2)cc1,,inactive: -6.26%
O=C(N/N=C/C(Br)=C\c1ccccc1)c1n[nH]c2c1CCC2,"inconclusive: 7.94 µM [inhibitor, partial curve]",
Cc1cc(SCC(=O)c2cccs2)nc2ccccc12,,inactive: -16.1%
Cc1[nH]c2c(C)cccc2c1CC(=O)O,"inconclusive: 28.2 µM [inhibitor, partial curve, poor fit]",

Structure (SMILES),Potency,"activity, negative = inhibition"
O=C(/C=C/Nc1ccccc1Oc1ccccc1)c1ccco1,"inconclusive: 28.2 µM [inhibitor, single point]",
O=C(CCc1ccccc1)N1CCN(c2ccc(Cl)cc2)CC1,"inconclusive: 14.1 µM [inhibitor, partial curve, poor fit]",
CC(C)C(c1nnnn1Cc1ccccc1)N1CCN(Cc2ccc3c(c2)OCO3)CC1 (centres undefined),,inactive: -8.62%
O=C(Nc1ccc(F)c(Cl)c1)c1nsc(Cl)c1Cl,"inconclusive: 17.8 µM [inhibitor, single point]",
N#CC12C(N)=NC3(OCCO3)C1(C#N)C1=C(CCC1)NC2c1ccccc1 (centres undefined),"inconclusive: 28.2 µM [inhibitor, partial curve, poor fit]",
NC(=O)C1=CN(C2OC(COP(=O)(O)OP(=O)(O)OC[C@H]3O[C@@H](n4cnc5c(N)ncnc54)[C@H](OP(=O)(O)O)[C@H]3O)C(O)C2O)C=CC1 (some centres undefined),,inactive: -6.93%
COc1cccc2c1C(=O)c1ccc3ccccc3c1C2=O,"inconclusive: 5.01 µM [inhibitor, full curve]",
Nc1c(C(=O)O)sc2nc(-c3ccccc3)c3c(c12)CCCC3,"inconclusive: 12.6 µM [inhibitor, partial curve, poor fit]",
OCCN1CCN(C(=S)c2ccc(-c3ccccc3)cc2)CC1,,inactive: -13.5%
COc1ccc(N=CC=C2OC(C)(C)C(C)(C)O2)cc1OC,"inconclusive: 31.6 µM [inhibitor, single point]",
C=CCn1c(=NC(=O)C2COc3ccccc3O2)sc2cccc(OC)c21 (centres undefined),"inconclusive: 31.6 µM [inhibitor, partial curve, poor fit]",
COc1ccc(-n2sc3c(c2=S)-c2cc(OC)ccc2NC3(C)C)cc1,"inconclusive: 28.2 µM [inhibitor, partial curve]",
Cc1ccc(Nc2c(-c3ccc(N4CCOCC4)cc3)nc3ncccn23)c(C)c1,"inconclusive: 28.2 µM [inhibitor, partial curve] and inconclusive: 20 µM [inhibitor, partial curve]",
Cc1nn(C(C)C(=O)Nc2cccc(F)c2)c(=O)c2c1sc1ccccc12 (centres undefined),"inconclusive: 31.6 µM [activator, single point]",
COc1ccc2[nH]c(-c3ccccc3)cc2c1,"inconclusive: 5.62 µM [inhibitor, partial curve]",
CCCCCOc1ccccc1Cn1c(=O)oc2ccc(C)cc21,,inactive: -13.1%
O=C(C1=C(O)/C(=C/c2ccc(O)cc2)CCC1)C(F)(F)F,active: 28.2 µM,
COC(=O)c1nnc(N[C@@H](Cc2c[nH]c3ccccc23)C(=O)OC)nc1C(=O)OC,,inactive: 1.68%
C=C(C)CN=C1SC(C(=O)Nc2sc3c(c2C(=O)OC)CCC3)C(N)=C1C(N)=O (centres undefined),"inconclusive: 15.8 µM [inhibitor, partial curve]",
C=CCn1c(SCC(N)=O)nnc1-c1ccccc1O,,inactive: 1.1%
O=C(COc1ccccc1Cl)Nc1ccc2c(c1)OCCO2,"inconclusive: 15.8 µM [inhibitor, partial curve]",
Cc1cccc(Cn2c(CNC(=O)c3ccccc3)nc3ccccc32)c1,"inconclusive: 2.82 µM [inhibitor, partial curve]",
CC(=O)c1ccc(NC(=O)CSc2nnc(NC(=O)NC3CCCCC3)s2)cc1,"inconclusive: 28.2 µM [activator, partial curve]",

Structure (SMILES),Potency,"activity, negative = inhibition"
BrC(=C\c1ccccc1)/C=N/n1cnnc1,"inconclusive: 12.6 µM [inhibitor, partial curve]",
CCOC(=O)c1ccc(-c2ccc(CO)o2)cc1,"inconclusive: 20 µM [inhibitor, partial curve]",
CCCCN(CCCNC(=O)c1c(C)cc(=O)oc1C)c1ccccc1,"inconclusive: 31.6 µM [inhibitor, partial curve]",
O=C(N/N=C/C=C/c1ccccc1)C1CC1c1ccccc1 (centres undefined),,inactive: -18.8%
CCc1cc2c(=O)c(-c3ccc4c(c3)OCCO4)coc2cc1OS(C)(=O)=O,,inactive: -16.7%
COC(=O)C1=C(C)NC(C)=C([N+](=O)[O-])[C@@H]1c1ccccc1C(F)(F)F,"inconclusive: 20 µM [inhibitor, partial curve, poor fit] and inconclusive: 39.8 µM [inhibitor, partial curve, poor fit]",
O=C(COc1ccc2ccc(=O)oc2c1)N1CCc2ccccc21,"inconclusive: 1.78 µM [inhibitor, full curve]",
CCCC(=O)Nc1ccc(-c2ccc(NC(=O)CCC)cc2)cc1,,inactive: -1.88%
CC1CCN(c2ccc(C(=O)NCc3ccc4c(c3)OCO4)cc2[N+](=O)[O-])CC1,"inconclusive: 3.98 µM [inhibitor, full curve]",
COc1ccccc1N1CCN(C[C@@H](O)COc2cccc3ccccc23)CC1,"inconclusive: 15.8 µM [inhibitor, partial curve]",
O=C(COc1ccc(Cl)cc1)N(Cc1ccco1)c1ccccn1,,inactive: 1.71%
CN1C(=O)N(C)C2(c3ccccc3)NC(=O)NC12c1ccccc1 (centres undefined),,inactive: -2.86%
O=C(/C=C/c1cccs1)Nc1scc(-c2ccccc2)c1C(=O)O,"inconclusive: 20 µM [inhibitor, partial curve]",
Cc1cc(SCC(=O)OC/C(O)=C(\C#N)c2nc3ccccc3[nH]2)c(C)cc1Br,"inconclusive: 17.8 µM [inhibitor, partial curve]",
CC(=C/c1ccccc1)/C=C1/SC(N2CCOCC2)=NC1=O,"inconclusive: 17.8 µM [inhibitor, partial curve]",
O=C(NCc1nnc(SCC(=O)N2CCCc3ccccc32)o1)c1c(F)cccc1Cl,"inconclusive: 35.5 µM [inhibitor, single point]",
Cc1nc2ccccc2n1CC(=O)N1CC(=O)Nc2ccccc21,,inactive: 1.12%
Cc1cc(=O)[nH]c(N/N=C/C(C)c2ccccc2)n1 (centres undefined),"inconclusive: 20 µM [inhibitor, partial curve, poor fit]",
CCc1ccc2[nH]c(=O)c(C(c3nnnn3CC3CCCO3)N3CCCc4ccccc43)cc2c1 (centres undefined),active: 11.2 µM,
C/C(=N/NC(=O)c1cc(O)c(O)c(O)c1)c1ccc([N+](=O)[O-])cc1,active: 3.55 µM,
CN(C)c1ccc(-c2nnc(-c3cccs3)o2)cc1,"inconclusive: 2.82 µM [inhibitor, full curve]",
CC1(C)COC(c2ccc(F)c([N+](=O)[O-])c2)=N1,"inconclusive: 25.1 µM [inhibitor, partial curve]",
Cc1ccc(-c2nc3ccccn3c2Nc2ccc3c(c2)OCCO3)s1,"inconclusive: 22.4 µM [inhibitor, partial curve]",
